Only a part is listed here, and it is no random draw. The list includes weakly bound sequences.
Columns and labels:
Assay in all cases: protein-binding microarray (PBM)
Conditions in all cases: PBM: ~300 nM protein, 6 mM HEPES pH 7.8, 80 mM KCl, 0.5 mM EDTA, 0.5 mM EGTA, 6% glycerol, 35 ng/ul poly-dIdC, 1% milk, 1 h, room temperature; Ap Aiptasia and Nv Nematostella (sea anemones) / Co Capsaspora / Aq Amphimedon (sponge) / Dm Drosophila / Hu human; RHD is the Rel homology domain; high values mean tight binding; most listed sequences are background and not binding sites; double strand, one strand shown
GST-Ap-NF-kB RHD = target: T1, GST-Ap-NF-kB RHD (UniProt A0A913YAJ5)
T1 sequence: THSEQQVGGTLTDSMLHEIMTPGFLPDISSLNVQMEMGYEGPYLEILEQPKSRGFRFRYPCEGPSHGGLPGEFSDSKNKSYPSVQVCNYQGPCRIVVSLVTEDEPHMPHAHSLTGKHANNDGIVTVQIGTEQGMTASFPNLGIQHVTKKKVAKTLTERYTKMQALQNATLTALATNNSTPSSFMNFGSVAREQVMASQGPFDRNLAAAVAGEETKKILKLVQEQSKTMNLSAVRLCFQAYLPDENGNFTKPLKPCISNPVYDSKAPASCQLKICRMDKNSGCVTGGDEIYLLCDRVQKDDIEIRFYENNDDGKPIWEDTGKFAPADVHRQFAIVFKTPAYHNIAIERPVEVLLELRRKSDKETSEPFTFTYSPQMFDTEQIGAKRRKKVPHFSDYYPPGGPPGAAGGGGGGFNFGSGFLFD

[1] = target: T2, GST-Nv-NF-kB (Cys allele) (UniProt E5G601)
T2 sequence: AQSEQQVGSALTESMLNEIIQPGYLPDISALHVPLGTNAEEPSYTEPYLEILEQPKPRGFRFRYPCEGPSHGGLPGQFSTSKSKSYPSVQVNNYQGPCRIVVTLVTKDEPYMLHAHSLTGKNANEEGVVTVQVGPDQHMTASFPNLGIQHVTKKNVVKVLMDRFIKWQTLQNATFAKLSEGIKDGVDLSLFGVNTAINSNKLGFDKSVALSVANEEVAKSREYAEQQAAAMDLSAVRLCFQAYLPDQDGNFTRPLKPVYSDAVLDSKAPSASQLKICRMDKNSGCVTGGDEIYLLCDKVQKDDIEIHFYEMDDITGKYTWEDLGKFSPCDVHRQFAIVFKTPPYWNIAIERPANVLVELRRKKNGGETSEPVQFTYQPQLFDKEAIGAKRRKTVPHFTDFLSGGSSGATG

GST-Co-NF-kB = target: T3, GST-Co-NF-kB (UniProt F1ARL5)
T3 sequence: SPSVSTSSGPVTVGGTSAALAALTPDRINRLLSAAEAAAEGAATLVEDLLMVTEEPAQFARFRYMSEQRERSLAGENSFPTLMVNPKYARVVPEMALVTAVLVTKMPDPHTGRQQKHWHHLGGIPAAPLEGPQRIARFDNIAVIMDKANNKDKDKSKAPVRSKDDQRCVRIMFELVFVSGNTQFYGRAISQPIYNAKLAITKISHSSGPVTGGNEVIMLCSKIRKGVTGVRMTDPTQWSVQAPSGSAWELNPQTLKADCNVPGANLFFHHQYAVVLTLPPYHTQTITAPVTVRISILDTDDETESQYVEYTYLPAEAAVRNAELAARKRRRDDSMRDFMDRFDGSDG

GST-Dm-Relish = target: T4, GST-Dm-Relish (UniProt Q94527)
T4 sequence: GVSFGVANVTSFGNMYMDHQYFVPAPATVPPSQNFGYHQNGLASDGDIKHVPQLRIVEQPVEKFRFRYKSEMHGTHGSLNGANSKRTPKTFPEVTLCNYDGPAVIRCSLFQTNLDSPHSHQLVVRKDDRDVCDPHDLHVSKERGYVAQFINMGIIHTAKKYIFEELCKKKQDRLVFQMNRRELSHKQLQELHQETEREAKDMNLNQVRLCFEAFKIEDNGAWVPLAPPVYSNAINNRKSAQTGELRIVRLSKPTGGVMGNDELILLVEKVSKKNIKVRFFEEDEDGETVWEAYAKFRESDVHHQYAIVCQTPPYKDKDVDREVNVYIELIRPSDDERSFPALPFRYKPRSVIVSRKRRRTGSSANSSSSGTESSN

GST-Aq-NF-kB = target: T5, GST-Aq-NF-kB (UniProt A9Y5G7)
T5 sequence: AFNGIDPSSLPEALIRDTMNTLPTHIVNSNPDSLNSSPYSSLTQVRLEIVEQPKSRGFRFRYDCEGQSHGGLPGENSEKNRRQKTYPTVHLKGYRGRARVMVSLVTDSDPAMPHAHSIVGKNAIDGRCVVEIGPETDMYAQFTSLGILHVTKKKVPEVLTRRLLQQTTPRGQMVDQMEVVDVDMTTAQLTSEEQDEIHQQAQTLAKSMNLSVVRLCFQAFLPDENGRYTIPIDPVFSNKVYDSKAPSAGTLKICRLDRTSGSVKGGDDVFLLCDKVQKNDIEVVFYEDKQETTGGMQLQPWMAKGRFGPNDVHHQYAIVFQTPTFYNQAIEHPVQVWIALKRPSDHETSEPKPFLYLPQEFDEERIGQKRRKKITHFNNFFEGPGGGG

Sequence | binding signal (GST-Ap-NF-kB RHD) | binding signal [1] | binding signal (GST-Co-NF-kB) | binding signal (GST-Dm-Relish) | binding signal (GST-Aq-NF-kB)
CCGATTAACATCAGCTAACTGCTTGATGTTAATCGGGTCTTGATTCGCTTGACGCTGCTG | -0.645 z-score | -0.708 z-score | -1.16 z-score | -0.656 z-score | -0.366 z-score
CCGATTAACATCACCTTAGGTTTTGATGTTAATCGGGTCTTGATTCGCTTGACGCTGCTG | 0.2 z-score | 0.0647 z-score | -0.0702 z-score | 0.348 z-score | 0.48 z-score
CCGATTAACATCAGGGCTATGGATGATGTTAATCGGGTCTTGATTCGCTTGACGCTGCTG | 0.388 z-score | -0.175 z-score | 0.603 z-score | -0.164 z-score | -0.229 z-score
CCGATTAACATCACGGAATGTGATGATGTTAATCGGGTCTTGATTCGCTTGACGCTGCTG | -0.367 z-score | -0.637 z-score | -0.385 z-score | 0.357 z-score | -0.135 z-score
CCGATTAACATCACATGGCGCTGTGATGTTAATCGGGTCTTGATTCGCTTGACGCTGCTG | -0.375 z-score | 0.0717 z-score | -0.672 z-score | 0.573 z-score | -0.668 z-score
CCGATTAACATCAGGTTCATTGTTGATGTTAATCGGGTCTTGATTCGCTTGACGCTGCTG | -0.0206 z-score | -0.537 z-score | -0.717 z-score | -0.422 z-score | -0.0348 z-score
CCGATTAACATCAGAATTATATCTGATGTTAATCGGGTCTTGATTCGCTTGACGCTGCTG | -0.804 z-score | 0.0933 z-score | -0.37 z-score | -0.104 z-score | -0.268 z-score
CCGATTAACATCAGGTATATTAATGATGTTAATCGGGTCTTGATTCGCTTGACGCTGCTG | 0.281 z-score | -0.155 z-score | -0.429 z-score | 0.473 z-score | 0.0923 z-score
CCGATTAACATCAGATGGATCGATGATGTTAATCGGGTCTTGATTCGCTTGACGCTGCTG | -0.59 z-score | -0.408 z-score | -0.576 z-score | -1.05 z-score | -0.57 z-score
CCGATTAACATCACAAAATGCCATGATGTTAATCGGGTCTTGATTCGCTTGACGCTGCTG | -0.152 z-score | -0.736 z-score | 0.268 z-score | 0.107 z-score | -0.186 z-score
CCGATTAACATCATTAAGAAAGCTGATGTTAATCGGGTCTTGATTCGCTTGACGCTGCTG | -0.11 z-score | -0.151 z-score | 0.366 z-score | -0.505 z-score | -0.412 z-score
CCGATTAACATCAATGGAAATTCTGATGTTAATCGGGTCTTGATTCGCTTGACGCTGCTG | -0.101 z-score | -0.181 z-score | -0.0895 z-score | 0.524 z-score | 0.71 z-score
CCGATTAACATCACAGAAATTCCTGATGTTAATCGGGTCTTGATTCGCTTGACGCTGCTG | 0.342 z-score | 0.157 z-score | 0.193 z-score | 0.974 z-score | 0.835 z-score
CCGATTAACATCACTTGGCCCAATGATGTTAATCGGGTCTTGATTCGCTTGACGCTGCTG | -0.0561 z-score | 0.0293 z-score | -0.714 z-score | -0.722 z-score | -0.0106 z-score
CCGATTAACATCAATGCCATTCGTGATGTTAATCGGGTCTTGATTCGCTTGACGCTGCTG | 0.00142 z-score | -0.711 z-score | -0.629 z-score | -0.402 z-score | -0.5 z-score
CCGATTAACATCACCCAACTATTTGATGTTAATCGGGTCTTGATTCGCTTGACGCTGCTG | 0.233 z-score | -0.392 z-score | 0.464 z-score | 0.434 z-score | 0.351 z-score

Sequence | binding signal (GST-Ap-NF-kB RHD) | binding signal [1] | binding signal (GST-Co-NF-kB) | binding signal (GST-Dm-Relish) | binding signal (GST-Aq-NF-kB)
CCGATTAACATCAGGCAATTCCATGATGTTAATCGGGTCTTGATTCGCTTGACGCTGCTG | -0.159 z-score | -0.358 z-score | -0.612 z-score | -0.0256 z-score | 0.404 z-score
CCGATTAACATCACAATACACGCTGATGTTAATCGGGTCTTGATTCGCTTGACGCTGCTG | -0.207 z-score | 0.18 z-score | 0.728 z-score | 1.05 z-score | 0.0152 z-score
CCGATTAACATCATAAGTCCTAGTGATGTTAATCGGGTCTTGATTCGCTTGACGCTGCTG | 0.102 z-score | 0.172 z-score | -0.266 z-score | -0.218 z-score | -0.054 z-score
CCGATTAACATCACAGGAAATCCTGATGTTAATCGGGTCTTGATTCGCTTGACGCTGCTG | 0.0614 z-score | -0.106 z-score | -0.307 z-score | 1.25 z-score | 0.835 z-score
CCGATTAACATCATCTGCCAGCATGATGTTAATCGGGTCTTGATTCGCTTGACGCTGCTG | -0.191 z-score | 0.1 z-score | -0.186 z-score | -0.595 z-score | -0.595 z-score
CCGATTAACATCATGTAGGAACCTGATGTTAATCGGGTCTTGATTCGCTTGACGCTGCTG | -0.789 z-score | -0.69 z-score | -0.712 z-score | -0.547 z-score | -0.33 z-score
CCGATTAACATCAAGGTCGTATATGATGTTAATCGGGTCTTGATTCGCTTGACGCTGCTG | -0.285 z-score | -0.691 z-score | -0.54 z-score | -0.518 z-score | -0.209 z-score
CCGATTAACATCAATGTCCGGTGTGATGTTAATCGGGTCTTGATTCGCTTGACGCTGCTG | 0.0496 z-score | -0.599 z-score | 0.278 z-score | 0.221 z-score | -0.0512 z-score
CCGATTAACATCATAAGAGAGCATGATGTTAATCGGGTCTTGATTCGCTTGACGCTGCTG | -0.248 z-score | 0.0693 z-score | -0.202 z-score | -0.623 z-score | -0.397 z-score
CCGATTAACATCAACAGTCGATGTGATGTTAATCGGGTCTTGATTCGCTTGACGCTGCTG | -0.448 z-score | -0.123 z-score | -0.744 z-score | -0.0548 z-score | -0.489 z-score
CCGATTAACATCATCTCGACCATTGATGTTAATCGGGTCTTGATTCGCTTGACGCTGCTG | -0.0441 z-score | -1.27 z-score | 0.0129 z-score | -1.01 z-score | -0.629 z-score
CCGATTAACATCAGAGTCTGCTGTGATGTTAATCGGGTCTTGATTCGCTTGACGCTGCTG | -0.727 z-score | -0.791 z-score | -0.846 z-score | -0.53 z-score | -0.449 z-score
CCGATTAACATCATGAGCAGGGATGATGTTAATCGGGTCTTGATTCGCTTGACGCTGCTG | 0.999 z-score | -0.399 z-score | 0.511 z-score | -0.343 z-score | 0.0795 z-score
CCGATTAACATCACTGAACGCGTTGATGTTAATCGGGTCTTGATTCGCTTGACGCTGCTG | -0.496 z-score | -0.294 z-score | -0.56 z-score | -0.346 z-score | -0.553 z-score
CCGATTAACATCATTGTAGTCCATGATGTTAATCGGGTCTTGATTCGCTTGACGCTGCTG | -0.564 z-score | -0.14 z-score | 0.195 z-score | -0.55 z-score | -0.294 z-score

From publication PMC5700166
